# From PubChem BioAssay AID1347073 (National Center for Advancing Translational Sciences (NCATS), 2019)
# Out of some 45,000 compounds screened, about 200 (0.44%) were called active. Another 7% or so got no clear call; they are omitted. Calls follow the shape of the dose curve; as a rule, active = well fitted activation curve with a large enough effect; inconclusive = small, poorly fitted or top-dose-only effect; inactive = no such curve, though single readings can be large or run the other way. This is one part of the list.
# Assay: qHTS of TDP-43 Inhibitors: NCGC Sytravon Library Screen; also: 0% is about no effect; nearly all actives have a fitted effect of over 55% in size
# Conditions: yeast TDP-43 toxicity rescue, BacTiter-Glo growth, 24 h; series mostly up to 46.1 µM; growth rescue (activation): at the top concentration
# Summary of the method: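 TDP-43-expressing yeast, pregrown in raffinose, seeded at OD600 0.02 in galactose medium with compound for 24 hr at 30 deg C. Growth read by BacTiter-Glo luminescence, so rescue of toxicity appears as activation.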
row,SMILES,growth rescue (activation)
1,COc1ccc(CC(=O)NCC(=O)Nc2ccccc2Br)cc1,inactive: -1.05%
2,CCOC(=O)c1c(NC(C)=O)sc(C(=O)NC2CCCC2)c1C,inactive: 20.3%
3,COc1ccc(-c2cc(C(=O)NCc3cccc(C(F)(F)F)c3)[nH]n2)c(C)c1,inactive: -4.89%
4,COc1ccc(NC(=O)c2oc3ccc(S(=O)(=O)N4CCOCC4)cc3c2C)c(OC)c1,inactive: 22.1%
5,Cc1cccc(NC(=O)NCC(c2cccnc2)N2CCOCC2)c1 (centres undefined),inactive: 24.2%
6,Cn1c(C(=O)N[C@@H](C(=O)O)c2ccccc2)cc2cc(Cl)ccc21,inactive: 7.73%
7,c1ccc(CCC2=NCCn3cccc32)cc1,inactive: -24%
8,CN(CC(=O)Nc1cccc(C(F)(F)F)c1)C1=NS(=O)(=O)c2ccccc21,inactive: 24.6%
9,CN(C)CCCn1c(SCC(=O)Nc2nc(-c3cccc(Br)c3)cs2)nc2ccccc2c1=O,inactive: 32.1%
10,CCn1c(=O)c(C(=O)CN2CCN(S(=O)(=O)c3cc(C)ccc3C)CC2)c(N)n(Cc2ccccc2)c1=O,inactive: -2.07%
11,N#Cc1c(-c2ccccc2)nc(SCC(=O)Nc2nnc(C(F)(F)F)s2)[nH]c1=O,inactive: -14.6%
12,O=C(CNCc1ccc(F)cc1)Nc1ccc(C(=O)N2CCCCC2)cc1,inactive: 7.74%
13,CCN(CC)S(=O)(=O)c1ccc(C(=O)N(c2ccc(C)cc2)C2C=CS(=O)(=O)C2)cc1 (centres undefined),inactive: -2.73%
14,N#Cc1ccc(COc2cccnc2[N+](=O)[O-])cc1,inactive: 7.07%
15,CCN1CCN(c2ccc(S(=O)(=O)N3CCOCC3)cc2NC(=O)c2cccc([N+](=O)[O-])c2)CC1,inactive: 10.3%
16,CC(C)=CC(=O)OCC(=O)Nc1cc([N+](=O)[O-])ccc1F,inactive: 12.3%
17,COc1ccc2cc(S(=O)(=O)n3cnc(C)c3)ccc2c1,inactive: 19.3%
18,CC(=O)c1ccc(-c2cnc3c(NC=O)cc(-c4ccc(S(C)(=O)=O)cc4)cn23)cc1,inactive: 0.985%
19,O=S(=O)(Nc1cccc(Cl)c1)c1cccc(-n2cnnn2)c1,inactive: 6.06%
20,Cc1ccc(F)cc1-c1cc2nc(NCCCN(C)C)n(C)c(=O)c2s1,inactive: 4.14%
21,COc1ccc(C(=O)O)cc1S(=O)(=O)NCCN(C)C,inactive: 17.8%
22,CC(C)(C)C(=O)Nc1nnc(SCC(=O)NC2CCCC2)s1,inactive: 15.6%
23,COc1ccc(CNC(=O)COC(=O)CC2CCCC2)cc1,inactive: 19%
24,Cc1cc(C(C)(C)C)n2nc(C)c(-c3ccccc3)c2n1,inactive: -21%
25,CSc1ccc(C2c3[nH]c4ccccc4c3CCN2C(=O)c2ccnn2C)cc1 (centres undefined),inactive: -3.47%
26,O=C(COc1ccc(C(=O)O)cc1)Nc1cccc(C(F)(F)F)c1,inactive: 0.864%
27,Oc1c(N=NC(=S)Nc2ccccc2F)c2ccccc2n1Cc1ccc(Cl)cc1,inactive: 21%

row,SMILES,growth rescue (activation)
1,CC(=O)NC(c1ccc(F)c(F)c1)c1nc(-c2ccc(F)c(Cl)c2)cs1 (centres undefined),inactive: 10.9%
2,COc1cc(NC2c3ncccc3C(=O)N2Cc2ccco2)cc(OC)c1OC (centres undefined),inactive: -9.55%
3,COc1ccc(CC2(CO)CCN(Cc3cccn3-c3ccccn3)CC2)cc1,inactive: -9.33%
4,Cc1ccccc1NC(=O)NCCc1c[nH]c2ccccc12,inactive: 3.85%
5,CCN1CCN(c2c(/C=C3\SC(=S)N(Cc4ccco4)C3=O)c(C)c(C#N)c(=O)n2C)CC1,inactive: 3.05%
6,CC(=O)NC(c1cccc(F)c1)c1nc(-c2cccc(C(F)(F)F)c2)cs1 (centres undefined),inactive: 12.7%
7,C/C(N)=C(/C#N)C(=O)CSc1nnc(Nc2cccc(C)c2)s1,inactive: -8.5%
8,COc1ccc(Cc2noc(CN3CCCN(C4Cc5ccccc5C4)CC3)n2)cc1OC,inactive: 1.83%
9,COc1ccc(CC(=O)NNc2ncnc3c2cnn3C)cc1OC,inactive: 8.63%
10,Cc1nc(SCC(=O)N2CCN(c3ccccc3)CC2)[nH]c(=O)c1C,inactive: -1.32%
11,Clc1nc2ccccc2cc1/C=N/Nc1nc2ccccc2[nH]1,inactive: 8.53%
12,CC(=O)N(C)N1c2ccccc2CCc2ccccc21,inactive: 9.22%
13,CCc1oc(C(=O)OC)cc1CSC(=N)N,inactive: -6.79%
14,Cc1ccc(NC(=O)CCn2c(=S)oc3ccccc32)cc1,inactive: 9.97%
15,CCOC(=O)/C=C1/SCC(=O)N1CC(=O)Nc1ccccc1OC(F)F,inactive: 6.43%
16,Cc1nc(C)c(C(=O)N2CCCC(CCC(=O)NCc3ccc(F)c(F)c3)C2)s1 (centres undefined),inactive: 11.4%
17,CSc1nnc2c(n1)OC1(Nc3ccccc3-2)C(=O)Nc2ccccc21 (centres undefined),inactive: -0.749%
18,Cc1cccc(OCC(=O)NC(Cc2c[nH]c3ccccc23)C(=O)O)c1C (centres undefined),inactive: -1.6%
19,CCC(=O)Nc1ccc(C(=O)NNC(=O)Cc2ccccc2)cc1,inactive: -4.24%
20,Cc1ccc(C)c(OCCC(=O)Nc2ccccc2C(=O)NC2CC2)c1,inactive: 3.8%
21,Cc1cc(NC(=O)COC(=O)c2c(C)noc2C)ccc1Br,inactive: 7.68%
22,Cc1nc2sc3c(c2c(=O)n1NC(=O)CCl)CCCC3,inactive: 2.06%
23,Cc1nn2c(NCc3cccnc3)c3c(nc2c1-c1ccccc1)CCC3,inactive: 9.14%
24,N#Cc1ccc(OCC(=O)NCCCn2ccnc2)cc1,inactive: -7.6%
25,CC(=O)c1sc(NC(=O)c2cccc3ccccc23)nc1C,inactive: 9.85%
26,O=C1c2ccccc2C(=O)N1CCc1c[nH]c2ccccc12,inactive: 4.92%
27,CC1CN(C(=S)SCCN2C(=O)CCC2=O)CC(C)O1 (centres undefined),inactive: 2.53%
